Results from PubChem BioAssay AID1347073 (National Center for Advancing Translational Sciences (NCATS), 2019).
In all, about 45,000 compounds went through this assay and about 200 (0.44%) were called active. Inconclusive results (about 7%) are left out. Calls come from the whole dose curve; as a rule, active = well fitted activation curve with a large enough effect; inconclusive = small, poorly fitted or top-dose-only effect; inactive = no such curve, though single readings can be large or run the other way. This is one part of the list.

assay: qHTS of TDP-43 Inhibitors: NCGC Sytravon Library Screen; details: yeast TDP-43 toxicity rescue, BacTiter-Glo growth, 24 h; series mostly up to 46.1 µM; growth rescue (activation): at the top concentration; note: 0% is about no effect; nearly all actives have a fitted effect of over 55% in size
Procedure, shortened: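 TDP-43-expressing yeast, pregrown in raffinose, seeded at OD600 0.02 in galactose medium with compound for 24 hr at 30 deg C. Growth read by BacTiter-Glo luminescence, so rescue of toxicity appears as activation.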

SMILES	growth rescue (activation)
CCCN1C/C(=C/c2ccc3c(c2)OCO3)C(=O)/C(=C/c2ccc3c(c2)OCO3)C1	inactive: -13.6%
O=C(Oc1cccc2cccnc12)c1cccc([N+](=O)[O-])c1	inactive: -19.2%
COc1ccc(OC(=O)c2ccc(Cl)cc2)c(C(C)=O)c1	inactive: 4.62%
O=C(O)C1CC(=O)N(c2ccc(OCc3c(F)cccc3Cl)cc2)C1 (stereo unspecified)	inactive: 2.25%
CC(C)C(=O)Nc1c2c(nn1-c1ccc(F)cc1)CS(=O)(=O)C2	inactive: -15.5%
COC(=O)c1ccccc1C(=O)N1CCCC(CCC(=O)NCc2ccc(F)c(F)c2)C1 (stereo unspecified)	inactive: 7.05%
Cc1ccc(/C=N/NC(=O)c2ccoc2C)o1	inactive: 8.32%
O=[N+]([O-])c1cccc(-c2ccc(C(=S)N3CCOCC3)o2)c1	inactive: 19.8%
COc1ccc(S(=O)(=O)N2CCc3ccccc32)cc1C(=O)Nc1cccnc1	inactive: 20%
CC(=O)NC(c1cccc([N+](=O)[O-])c1)c1ccc2cccnc2c1O (stereo unspecified)	inactive: -2.61%
CC(C)NC(=S)N1CCC(Cc2ccccc2)CC1	inactive: 30.1%
COc1ccc(CC(NC(C)=O)C(=O)NC2CCN(S(=O)(=O)c3ccc(NC(C)=O)cc3)CC2)cc1 (stereo unspecified)	inactive: -2.17%
N#Cc1cccc(NC(=O)CNC(=O)Cc2ccccc2)c1	inactive: 19.8%
O=C(COc1ccccc1)NS(=O)(=O)c1ccccc1	inactive: 8.44%
Cc1cccc(C(=O)NCc2nnc(SCC(=O)NC3CCCC3)n2C)c1	inactive: -17%
Cc1ccc(F)c(S(=O)(=O)NC(=O)C2(C)CCN2C(=O)CC2CCCCC2)c1 (stereo unspecified)	inactive: -13.5%
CSc1nsc(SCC(=O)Nc2ccc(OC(C)=O)cc2)n1	inactive: 5.08%
O=C(Nc1ccc([N+](=O)[O-])cc1)C1(c2ccccc2)CCOCC1	inactive: 16.9%
c1ccc(Cc2noc(CN3CCCN(C4Cc5ccccc5C4)CC3)n2)cc1	inactive: 9.48%
O=[N+]([O-])c1ccccc1S(=O)(=O)NC1CCCCCCC1	inactive: 26.5%
CC1CCN(C(=S)c2ccc(N(C)C)cc2)CC1	inactive: 4.62%
COC(=O)CCNc1n[nH]c(=O)[nH]c1=O	inactive: -18.9%
Brc1ccc(-c2cn3ccccc3n2)cc1	inactive: -5.21%
CC1(C)CC(=O)C2=C(C1)NC1=C(C(=O)c3ccccc31)C2c1cc([N+](=O)[O-])ccc1O (stereo unspecified)	inactive: 15.8%
CN(CCCCCC(=O)/C=N/O)Cc1ccccc1	inactive: 14.5%

SMILES	growth rescue (activation)
Cc1cc(C)nc(NS(=O)(=O)c2cccs2)c1	inactive: -8.83%
COC(=O)c1ccc(-n2nnc(-c3nc(-c4ccccc4Cl)no3)c2C)cc1	inactive: 21.6%
CN(C)CCCN(Cc1ccccc1)C(=S)Nc1cccc(C(F)(F)F)c1	inactive: 17.3%
CSc1ccccc1COC(=O)Nc1ccccc1C	inactive: 11.6%
CCOC(=O)C1=C(C)NC(C)=C(C(=O)OCC)C1C(=O)OCC(=O)NCc1ccco1	inactive: -2.46%
COc1ccc2[nH]cc(CCn3ccc(=O)c(C)c3C)c2c1	inactive: 15.9%
Oc1c(C=C2N=c3ccccc3=N2)sc(=S)n1C1CCCCC1	inactive: 15.5%
CSCCC(NC(N)=O)C(=O)Nc1ccc2ccccc2c1 (stereo unspecified)	inactive: 6.32%
O=C(CN1C(=O)NC(Cc2c[nH]c3ccccc23)C1=O)Nc1ccc(F)cc1F (stereo unspecified)	inactive: -10.6%
O=C(CCC(=O)Nc1ccc(F)cc1)N/N=C/c1c[nH]c2ccccc12	inactive: 11.1%
CC(=O)Nc1ccccc1NC(=O)C/C(C)=N/NC(=O)c1cccnc1	inactive: -2%
CCCNC(=O)c1ccc2c(c1)nc(C)n2-c1cccc(C)c1	inactive: 2.57%
CCCC(=O)N1CCC1(C)C(=O)Nc1cc(-c2ccccc2)nn1C (stereo unspecified)	inactive: 5.5%
CSc1ccc(S(=O)(=O)N2CCC(C(=O)Nc3ccc(C(N)=O)cc3)CC2)cc1	inactive: -22.2%
CCOc1ccccc1Nc1nc(-c2sc(C)nc2C)cs1	inactive: 6.86%
COc1ccc(-n2nc(C(=O)NCC(=O)NCCCN3CC(C)CC(C)C3)c3ccccc3c2=O)cc1OC (stereo unspecified)	inactive: 10.4%
Cc1cc(C(=O)N2CCCC(C(=O)c3ccc4ccccc4c3)C2)nn1C (stereo unspecified)	inactive: 21.9%
CC(=O)Nc1ccc(NC(=O)c2c(C)nn(Cc3ccccc3Cl)c2C)cc1	inactive: -8.82%
Oc1[nH]c2ccc(Br)cc2c1N=Nc1ccc(C(F)(F)F)cn1	inactive: 19.3%
O=C(Nc1c(C(=O)O)[nH]c2ccc(F)cc12)c1cccc(C(F)(F)F)c1	inactive: 0.647%
O=C(CSc1nc2nn(-c3ccccc3)c(=O)c-2c2n1CCCCC2)Nc1ccccc1[N+](=O)[O-]	inactive: 16.5%
Cc1ccsc1C(=O)NCCc1ccc(S(N)(=O)=O)cc1	inactive: 4.4%
Cc1cc(=O)oc2cc(OCC(=O)Nc3cccnc3)ccc12	inactive: -0.0571%
Cc1nnc(NC(=O)NC(C)N2C(=O)C3C4C=CC(C4)C3C2=O)s1 (stereo unspecified)	inactive: -0.496%
CC(C)c1cc(C(=O)N2CCCC(CCC(=O)N3CCN(c4ccccn4)CC3)C2)no1 (stereo unspecified)	inactive: -0.612%

SMILES	growth rescue (activation)
COc1cccc(C(=O)NC(=S)Nc2ccc([N+](=O)[O-])cc2C)c1	inactive: 15.3%
Cc1cc(OCC(=O)O/N=C(\N)c2ccccc2)ccc1Cl	inactive: 38.9%
O=C(Nc1ccccc1Cl)NC1(C(=O)NCC2CCCO2)CCCCC1 (stereo unspecified)	inactive: 2.24%
NC(=O)c1ccc[n+](CCC[n+]2cccc(C(N)=O)c2)c1	inactive: 12.4%
COCCCNC(=O)CCc1ccccc1	inactive: -3.87%
O=C(COC(=O)CCC1CCCC1)Nc1ccccc1Sc1ccccc1	inactive: 8.53%
O=C(O)CC1S/C(=N/N=C/C=C/c2ccccc2[N+](=O)[O-])NC1=O (stereo unspecified)	inactive: 2.03%
Cc1cc(Cl)ccc1OCC(=O)NNC(=O)c1ccc(=O)[nH]c1	inactive: -4.72%
Cc1cccc(C)c1-n1nnnc1C(C)(C)N1CCN(N=O)CC1	inactive: 15.1%
N#CCCN(C(=O)CSc1nc2nc(-c3cccs3)cc(C(F)(F)F)c2c(=O)[nH]1)c1ccccc1	inactive: 24.5%
COc1ccccc1S(=O)(=O)Nc1cccc(S(=O)(=O)N2CCCC2)c1	inactive: -7.49%
CCOc1ccc2[nH]c3c(NCCc4ccc(OC)c(OC)c4)ncnc3c2c1	inactive: 2.75%
O=C(Nc1cccc(Cl)c1Cl)c1csc([C@H]2C[C@H](O)[C@@H](CO)O2)n1	inactive: -1.33%
CCC(=O)NC(=S)Nc1ccc(NC(=O)CC)cc1	inactive: -6.81%
O=S(=O)(c1cccc(Br)c1)N1CCN(CCc2ccccc2)CC1	inactive: 4.99%
CC(=O)Nc1c(C(=O)O)[nH]c2ccccc12	inactive: 7.33%
COc1cc(C(C)=O)ccc1COc1ccc(C(=O)O)cc1OC	inactive: -32.3%
COc1ccccc1NC(=O)CNc1ccc(F)c(Cl)c1	inactive: 14.9%
CCOC(=O)c1csc(N)n1	inactive: 3%
C=CCN1C(=O)/C(=N/n2cnnc2)c2ccccc21	inactive: 25.4%
Cc1ccc(N(Cc2ccc(C(=O)NN=C3CCN(C)CC3)cc2)S(C)(=O)=O)cc1C	inactive: -15.3%
NS(=O)(=O)c1ccc(CCNC(=O)c2cccc3ccccc23)cc1	inactive: 5.12%
CCOC(=O)C1CCCN(C(=O)CSc2ccccc2)C1 (stereo unspecified)	inactive: 23.5%
O=C(Nc1ccccc1Cl)c1cc(C2CCCN(C(=O)c3cccc(O)c3)C2)on1 (stereo unspecified)	inactive: 13.8%
COc1ccc(Nc2cc(Nc3ccc(OC)cc3)ncn2)cc1	inactive: 12.5%

SMILES	growth rescue (activation)
CCCCn1c2c(c(=N)c3c1CCC3)CCC2	inactive: -4.81%
O=C(CCC(=O)Nc1ccccc1)NNC(=O)CCc1ccccc1	inactive: -1.93%
CCOc1ncccc1C(=O)OCC(=O)Nc1cc(S(=O)(=O)N(CC)CC)ccc1C	inactive: 3.45%
O=C(Nc1ccccc1)c1ccc(Nc2c([N+](=O)[O-])cc([N+](=O)[O-])c3ccccc23)cc1	inactive: -12.1%
O=S(=O)(c1ccc(Br)cc1)N1CCCN(Cc2ccccc2F)CC1	inactive: -14.4%
CCn1c(CC(=O)Nc2ccccc2F)nnc1SCC(=O)NC1CCCC1	inactive: 11.8%
CC1CCN(C(=O)CCCC(=O)O)CC1	inactive: 22.5%
CCN(CC)c1ccc(C2C(C(=O)OCCOC(C)C)=C(C)NC3=C2C(=O)CCC3)cc1 (stereo unspecified)	inactive: -1.59%
CC(C)(C)SCCNC(=O)CN(c1ccc(F)cc1)S(=O)(=O)c1ccccc1	inactive: 10.1%
CN1C(=O)C2(NCCc3c2[nH]c2ccccc32)c2ccccc21 (stereo unspecified)	inactive: -0.13%
CCOC(=O)Nc1ccc2c(c1)N(C(=O)N(CC)CC)c1ccccc1CC2	inactive: 3.53%
CCCCOCCCNC(=O)c1cccc(OC)c1	inactive: -4.48%
Cc1ccc(Nc2nc3ccccc3c(=O)s2)cc1C	inactive: -1.92%
OCCN1CCN(c2cc(-c3ccc4ccccc4c3)nc3ccnn23)CC1	inactive: 9.25%
CCOCCCNC(=O)c1c(NC(=O)c2nc(SC)ncc2Cl)sc2c1CCCC2	inactive: 8.45%
NS(=O)(=O)c1cccc(NC(=O)COC(=O)CCc2ccccc2)c1	inactive: 12.4%
COc1ccc(NC(=O)C2C3C=CC4(O3)C2C(=O)N(CCN2CCCCC2C)C4C(=O)NC2CCCC(C)C2C)cc1 (stereo unspecified)	inactive: 4.08%
Cn1c(=O)n(C)c2cc(S(=O)(=O)NCc3ccccc3)ccc21	inactive: 4.11%
CC(=O)c1cccc(CN2CCN(CCC(C)C)C(CCO)C2)c1 (stereo unspecified)	inactive: 31.4%
O=C(Nc1nc2c(F)c(F)c(F)cc2s1)c1ccco1	inactive: -12.3%
CCCCNC(=O)C1CCC(=O)N1CCc1ccccc1 (stereo unspecified)	inactive: 10%
CC(=O)N1CCN(C(=O)COc2ccc(Br)cc2)CC1	inactive: -14.2%
CCCCn1c(N)c(N(CC)C(=O)c2cccc(F)c2)c(=O)[nH]c1=O	inactive: -11%
O=C(COC(=O)c1ccccn1)Nc1ccccc1OC(F)F	inactive: 5.47%
S=C(Nc1ccccc1)Nc1ccccc1Br	inactive: 16.3%

SMILES	growth rescue (activation)
CCN(CC)CCCNc1cc(C)nc2cc(-c3cccs3)nn12	inactive: 0.186%
O=S(=O)(NCc1ccccc1)NCc1ccccc1F	inactive: 29%
Cc1ccc(OCC(=O)N(C)CC(=O)NCc2ccco2)c(Br)c1	inactive: -4.2%
CCCc1ccc(S(=O)(=O)N2CCN(Cc3ccco3)CC2)cc1	inactive: 6.24%
CCCCCCOc1ccc(C(CC(=O)NC)C(=O)O)cc1 (stereo unspecified)	inactive: 13.7%
COc1ccc(OC)c(NC(=O)CCNC(=O)c2ccco2)c1	inactive: -8.09%
COc1ccc(CCNC(=O)c2sc3cc(C)ccc3c2Cl)cc1	inactive: -26%
COc1ccc(OC)c(NC(=O)c2cc3c(cc2Cl)N2CCCCCC2=NS3(=O)=O)c1	inactive: -9.04%
O=C(CCc1ccccc1)NC1CCS(=O)(=O)C1 (stereo unspecified)	inactive: -4.45%
O=C(CSc1ccc([N+](=O)[O-])cn1)Nc1ccc2c(c1)OCCO2	inactive: 3.49%
Cc1ccc(S(=O)(=O)N2CCCCC2)cc1NC(=O)COc1ccccc1	inactive: 7.8%
Cc1ccc(S(=O)(=O)CCN2CCN(c3ccccc3)CC2)cc1	inactive: 0.53%
CC1CCCN(CCCNC(=O)c2cc3c(Cl)nc4ccccc4c3s2)C1 (stereo unspecified)	inactive: -0.597%
NCCNC[C@@H]1COC2(CCCCCCCCCCC2)O1	inactive: 23.8%
CS(=O)(=O)N1CCN(C(=S)NCc2ccc(Cl)cc2)CC1	inactive: -6.02%
CCc1nc2c(OCc3ccc(C#N)cc3)cccn2c1N(C)C(=O)c1ccco1	inactive: 6.46%
O=S(=O)(Nc1ccc(Br)cc1)c1cccc(NC(=S)NCCN2CCOCC2)c1	inactive: 1.29%
COc1ccc(/C=C/C(=O)Nc2nc(C)c(C(=O)N(C)C)s2)cc1OC	inactive: 2.37%
COc1cc(/C=N/NC(=O)c2cccnc2)ccc1OCC(=O)Nc1ccc(C)cc1	inactive: 10%
CC(C)(C)C(=O)CSc1ncccn1	inactive: -4.51%
CCCS(=O)(=O)NC(=O)C1(C)CCN(C(=O)c2cccc(OC(F)(F)F)c2)C1 (stereo unspecified)	inactive: 5.85%
